Measured values: PubChem BioAssay AID887 (National Center for Advancing Translational Sciences (NCATS), 2007)
“And” between values parts separate entries of the source, which are not always exact repeats. Equal values may be shown once. Screen size: about 74,000 compounds; about 1,100 (1.5%) were called active. Inconclusive results, whose numbers are uncertain, are shown with a selection of clear calls. Calls come from the whole dose curve; as a rule, active = well fitted inhibition curve with a large enough effect; inconclusive = small, poorly fitted or top-dose-only effect; inactive = no such curve, though single readings can be large or run the other way. Potencies of inconclusive entries are left out as doubtful fits. Some compounds were tested as several samples or in several runs, with calls that do not always agree.

Biological target: Polyunsaturated fatty acid lipoxygenase ALOX15 (Homo sapiens) (UniProt P16050)
Experiment: qHTS Assay for Inhibitors of 15-hLO (15-human lipoxygenase); note: nearly all actives have a fitted effect of over 55% in size
Settings: purified 15hLO-1, xylenol orange hydroperoxide absorbance; activity change, negative = inhibition: at 57.1 µM (top of the series) unless noted
Procedure, shortened: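 Compounds were preincubated 15 min at room temperature with 40 nM purified human enzyme (25 mM Hepes pH 7.5, 0.01% Triton X-100); 50 uM arachidonic acid reacted 6 min. Fe-xylenol orange detection, 30 min, absorbance ratio 573/405 nm.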
% is set by controls: 0 for no effect and ±100 for the full control effect; potency is the fitted concentration of half-maximal effect; tags give direction and shape of the fitted curve.

Sequence of UniProt P16050 (P16050 whole entry, looked up): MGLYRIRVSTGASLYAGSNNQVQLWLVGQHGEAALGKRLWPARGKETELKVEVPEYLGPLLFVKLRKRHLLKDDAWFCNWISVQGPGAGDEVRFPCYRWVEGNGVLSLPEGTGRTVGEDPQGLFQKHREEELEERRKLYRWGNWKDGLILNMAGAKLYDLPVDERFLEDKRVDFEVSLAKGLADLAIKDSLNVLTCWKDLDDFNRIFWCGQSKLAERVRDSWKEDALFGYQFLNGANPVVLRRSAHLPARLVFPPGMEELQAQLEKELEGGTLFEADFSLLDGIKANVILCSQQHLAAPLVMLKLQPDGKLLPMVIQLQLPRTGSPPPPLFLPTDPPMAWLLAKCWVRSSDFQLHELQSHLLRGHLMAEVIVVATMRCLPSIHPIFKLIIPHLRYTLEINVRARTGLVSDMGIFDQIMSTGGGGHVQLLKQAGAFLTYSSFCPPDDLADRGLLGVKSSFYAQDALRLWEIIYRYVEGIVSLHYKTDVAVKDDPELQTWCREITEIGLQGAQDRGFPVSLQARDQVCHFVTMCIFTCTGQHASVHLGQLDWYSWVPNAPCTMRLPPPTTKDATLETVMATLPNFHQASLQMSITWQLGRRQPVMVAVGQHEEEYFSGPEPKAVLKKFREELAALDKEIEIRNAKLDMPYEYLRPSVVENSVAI

Row | Compound | Potency | activity change, negative = inhibition
1 | CN1CC[C@@]2(c3cccc(O)c3)Cc3nc4ccccc4cc3C[C@H]2C1 | inactive | –
2 | CC(=O)OC1CCC2(C)C3=C(CCC2C1(C)C)[C@@]1(C)CCC(C(C)CCC=C(C)C)[C@@]1(C)CC3 (stereo not given in full) | inconclusive [inhibitor, single point] | –
3 | NC(=O)c1cc(N2CC2)c([N+](=O)[O-])cc1[N+](=O)[O-] | inactive | –
4 | O=C(Nc1cccc(F)c1)N1CC2(CCNCC2)C1 | inconclusive [inhibitor, single point] | –
5 | O=[N+]([O-])c1cc(O)c(O)c([N+](=O)[O-])c1 | inconclusive [inhibitor, partial curve, poor fit] | –
6 | CC(C)OCCCNC(=O)c1c(N)n(CC2CCCO2)c2nc3ccccc3nc12 (stereo not given) | inactive | –
7 | CCC(C)NC(=O)c1c(N)n(Cc2ccc3c(c2)OCO3)c2nc3ccccc3nc12 (stereo not given) | inactive | –
8 | CN1CCc2cc(Cl)c(O)cc2[C@H]2c3ccccc3CC[C@@H]21 | inconclusive [inhibitor, single point] | –
9 | CCS(=O)(=O)N1CCN(C2CCC(C)CC2)CC1 (stereo not given) | inconclusive [inhibitor, partial curve] | –
10 | CCc1nc(CNC(=O)c2cc(OC)c(OC)c(OC)c2)no1 | active: 10 µM | –
11 | O=[N+]([O-])c1cccc(O)c1 | inconclusive [inhibitor, full curve, poor fit] | –
12 | C[C@H]1O[C@H](O[C@H]2[C@H](O)[C@@H](O)[C@@H](O)[C@H](O)[C@@H]2O)[C@@H](N)C[C@@H]1NC(=N)C(=O)O | inconclusive [inhibitor, partial curve] | –
13 | N[C@@H](Cc1ccc(N(CCCl)CCCl)cc1)C(=O)O | inconclusive [inhibitor, single point] | –
14 | CC1=CC(=O)c2c(O)cccc2C1=O | inconclusive [inhibitor, full curve] | –
15 | CCN(CC)c1ncnc2c1ncn2[C@@H]1O[C@@H](COP(=O)(O)OP(=O)(O)C(Br)(Br)P(=O)(O)O)[C@H](O)[C@H]1O | inconclusive [inhibitor, single point] | –
16 | O=C(O)c1cc[c]([Hg][S]c2ncnc3nc[nH]c23)cc1 | active: 0.794 µM | –
17 | CCN(CC)CCO[C@H]1CC[C@@]2(C)C(=CC[C@@H]3[C@H]2CC[C@]2(C)C(=O)CC[C@H]32)C1 | inactive | –
18 | COC(=O)/C(C)=C\CC12OC(C)(C)C3CC(C=C4C(=O)c5c(OC)c6c(c(CC=C(C)C)c5OC431)OC(C)(CCC=C(C)C)C=C6)C2=O (stereo not given) | inconclusive [inhibitor, partial curve] | –
19 | CCCN1CC[C@@H]2c3cc(O)ccc3CC[C@H]21 | inactive | –
20 | COc1ccc2c(c1)CC1(CN2C)C(=O)NC(=O)N(CCc2ccccc2)C1=O (stereo not given) | active: 15.8 µM | –
21 | CC(C)CCCC(C)C1CCC2C3C(=O)C=C4CC(O)CC[C@@]4(C)C3CC[C@@]12C (stereo not given in full) | inconclusive [inhibitor, single point] | –
22 | C[C@@]12Cc3cnc(-c4ccccc4)nc3C[C@@H]1CC[C@@H]1[C@H]3CC[C@@](C)(O)[C@]3(C)CC[C@@H]12 | – | inactive: 7.12% [at 11.4 µM]

Row | Compound | Potency | activity change, negative = inhibition
23 | CC(C)=CCCC1(C)C=Cc2c(O)c3c(c(CC=C(C)C)c2O1)OC12C(CC4CC1C(C)(C)OC2(C/C=C(/C)C(=O)O)C4O)C3=O (stereo not given) | inconclusive [inhibitor, partial curve] | –
24 | C[C@H]1CCCC(=O)CCC/C=C/c2cc(O)cc(O)c2C(=O)O1 | inconclusive [inhibitor, partial curve, poor fit] | –
25 | c1cc(N2CCCC3(CCNCC3)C2)ccn1 | inactive | –
26 | COc1ccc2c(c1)c(CCN1CCOCC1)c(C)n2C(=O)c1cccc(Cl)c1Cl | inconclusive [inhibitor, partial curve] | –
27 | CN1Cc2ccccc2[C@@H]2c3cccc4[nH]cc(c34)C[C@H]21 | inconclusive [inhibitor, full curve] | –
28 | N[C@@]1(C(=O)O)CC[C@H](C(=O)O)C1 | inconclusive [inhibitor, single point] | –
29 | O=C(N[C@H]1CN2CCC1CC2)c1ccc(Cl)cc1 | inconclusive [inhibitor, single point] | –
30 | Nc1c(C(=O)NCCc2ccccc2)c2nc3ccccc3nc2n1CCN1CCOCC1 | inconclusive [inhibitor, single point] | –
31 | O=C(O)Cc1ccc(OCCNC[C@H](O)c2ccccc2)cc1 | inconclusive [inhibitor, single point] | –
32 | O=c1cccc2n1CC1CC2CN2CCCC[C@H]12 (stereo not given in full) | inactive | –
33 | Cc1[nH]nc2c1C1(CCC(c3ccccc3)CC1)C(C#N)=C(N)O2 (stereo not given) | inconclusive [inhibitor, single point] | –
34 | Cc1ccc(NC(=[OH+])c2cc3ccccc3cc2O)c(C)c1.Cc1ccc(NC(=[OH+])c2cc3ccccc3cc2O)c(C)c1.[Ni] | active: 3.98 µM | –
35 | O=C(Oc1ccccc1)c1ccccc1O | inconclusive [inhibitor, partial curve] | –
36 | O=C(O)c1ccccc1-c1c2cc(Br)c(=O)cc-2oc2[c]([Hg])c(O)c(Br)cc12 | active: 794 nM and active: 251 nM | –
37 | NC(N)=NOCC[C@H](N)C(=O)O | inconclusive [inhibitor, partial curve] | –
38 | Cc1nn(CCC#N)c2c1P(=S)(N1CCCC1)OC(c1ccc(F)cc1)=N2 (stereo not given) | inconclusive [inhibitor, partial curve] | –
39 | CC(C)C[C@H]1C(=O)N2CCC[C@@H]2[C@]2(O)O[C@](NC(=O)[C@@H]3C=C4c5cccc6[nH]c(Br)c(c56)C[C@H]4N(C)C3)(C(C)C)C(=O)N12 | inactive | –
40 | COc1cc2c(C(=O)N3CCN(C)CC3)c(C)n(C)c2cc1Br | inactive | –
41 | S=C(S)N1CCCC1 | inconclusive [inhibitor, full curve, poor fit] | –
42 | NC(N)=Nc1ccc2[nH]c3c(c2c1)C[C@]1(O)[C@@H]2Cc4ccc(O)c5c4[C@]1(CCN2CC1CC1)[C@H]3O5 | active: 1.26 µM | –
43 | COP(=S)(OC)SCn1nnc2ccccc2c1=O | active: 12.6 µM | –
44 | O=c1[nH]c2ccccc2n1CCCN1CCC(n2c(=O)[nH]c3cc(Cl)ccc32)CC1 | inactive | –

Row | Compound | Potency | activity change, negative = inhibition
45 | CC(C)=CCCC(C)C1CC[C@@]2(C)C3=C(CC[C@@]12C)C1(C)CCC(O)C(C)(C)C1CC3 (stereo not given in full) | inconclusive [inhibitor, full curve] | –
46 | C=CCN1C[C@@H](C)N([C@H](c2ccc(C(=O)N(CC)CC)cc2)c2cccc(OC)c2)C[C@H]1C | inactive | –
47 | C=CCN1CC[C@]23c4c5ccc(O)c4O[C@H]2/C(=N/NC(=O)c2ccccc2)CC[C@@]3(O)[C@H]1C5 | inconclusive [inhibitor, single point] | –
48 | CC(C)CC(N(C)C)C1(c2ccc(Cl)cc2)CCC1 (stereo not given) | active: 20 µM | –
49 | c1cncc(CNc2cc(-c3ccc4c(c3)OCO4)ncn2)c1 | inconclusive [inhibitor, single point] | –
50 | CCOC(=O)c1ccc(N2C(=O)CC(N3CC=C(c4ccc(F)cc4)CC3)C2=O)cc1 (stereo not given) | inconclusive [inhibitor, partial curve] | –
51 | Cc1cc(C(=O)O)sc1C(N)C(=O)O (stereo not given) | inconclusive [inhibitor, single point] | –
52 | COc1cc2c(cc1OC)-c1c(O)c(OC)cc3c1[C@H](C2)N(C)CC3 | inconclusive [inhibitor, partial curve] | –
53 | CN(N=O)c1ccc(O)c(O)c1 | active: 15.8 µM | –
54 | CC1OC(=O)C(C(C)C)NC(=O)C(C(C)C)OC(=O)C(C(C)C)NC(=O)C(C)OC(=O)C(C(C)C)NC(=O)C(C(C)C)OC(=O)C(C(C)C)NC(=O)C(C)OC(=O)C(C(C)C)NC(=O)C(C(C)C)OC(=O)C(C(C)C)NC1=O (stereo not given) | inconclusive [inhibitor, single point] | –
55 | COc1c2c(c(CC=C(C)C)c3oc(=O)c(-c4ccc(O)cc4)c(O)c13)OC(C)(C)C=C2 | inconclusive [inhibitor, partial curve] | –
56 | Oc1cc2c(cc1O)[C@H]1c3ccccc3CN[C@@H]1CC2 | inconclusive [inhibitor, full curve, poor fit] | –
57 | CNCCc1ccc(O)c(O)c1 | inconclusive [inhibitor, partial curve, poor fit] | –
58 | O=C1C=CC(=O)c2c(O)cccc21 | active: 2 µM | –
59 | CCN(CC)C(=O)N[C@H]1C[C@H]2c3cccc4[nH]cc(c34)C[C@@H]2N(C)C1 | inconclusive [inhibitor, partial curve] | –
60 | Nc1nc(N)c(N=Nc2ccc([As](=O)(O)O)c(O)c2)c(N)n1 | – | inactive: 8.23% [at 11.4 µM]
61 | CCOC(=O)C1=C(C)N(C)C2(C)CC1c1ccccc1O2 (stereo not given) | inactive | –
62 | C[C@@H]1Cc2cc3c(cc2C(c2ccc(N)cc2)=NN1)OCO3 | inconclusive [inhibitor, full curve] | –
63 | O=C(c1ccc2nc(-c3ccco3)c(-c3ccco3)nc2c1)N1CCC2(CC1)OCCO2 | active: 3.98 µM | –
64 | Cc1nc2ccc(Nc3nc4cc(S(=O)(=O)N5CCOCC5)ccc4o3)cc2s1 | inconclusive [inhibitor, partial curve] | –
65 | CC(C)CC12CN3CCN(CC(C3)C1O)C2 (stereo not given) | inconclusive [inhibitor, partial curve] | –
